# In publication PMC12040169 (PLOS Biology, 2025):
# This is one part of the list.
# Test system: T1, C. trachomatis L2/434/Bu expressing GFP (CTL2-GFP)
# T1 construct: L2/434/Bu GFP intracellular growth in HeLa cells
# Design: species or system HeLa; C. trachomatis total inclusion area by high-content imaging, normalised to DMSO
# Settings: total inclusion area; 28.5 h, 10 µM; inhibitor
# Method in brief: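 High-content images of fixed, Hoechst-stained infected cultures supply inclusion area and count (growth) plus nuclei number (viability), complementing bulk GFP/resorufin fluorescence. MIC determination is unchanged from the primary assay.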
row,SMILES,% of control remaining
1,O=C1OCCN1C1CCN(S(=O)(=O)c2cccs2)CC1 [CBK043313],106.799
2,CC(C)n1nccc1C(=O)NCC(c1ccccc1F)N1CCCC1 (centres unmarked) [CBK283032],93.8551
3,CC1SC2(C(=O)Nc3ccccc32)N(c2ccc(Oc3ccccc3)cc2)C1=O (centres unmarked) [CBK103750],89.1569
4,CN1CCN(C(=O)c2cc(Br)cnc2NCCOc2ccccc2)CC1 [CBK076231],102.026
5,COCCN(C(=O)c1[nH]c2c(F)cccc2c1C)C1CCN(C)CC1 [CBK307386],75.5163
6,COc1ccc(C(=O)N2CCC3(CCN(Cc4cccc(C#N)c4)C3)C2)cc1OC (centres unmarked) [CBK132153],94.9004
7,O=C(O)c1cccc(Nc2ncnc3ccccc23)c1 [CBK073042],95.6651
8,Clc1ccc(-c2nn3c4cc(N5CCNCC5)ccc4nc3c3ccccc23)cc1 [CBK268319],104.796
9,Cc1c(C(=O)N(CC(=O)O)C2CC2)nnn1-c1ccc(Cl)cc1F [CBK304738],72.1446
10,COc1ccc([N+](=O)[O-])cc1Nc1nc(-c2ccccc2)nc2ccccc12 [CBK265913],87.4263
11,Cc1cc(NC(c2cccc([N+](=O)[O-])c2)c2ccc3cccnc3c2O)no1 (centres unmarked) [CBK296083],87.7697
12,Cc1cc(I)ccc1NC(=O)CN(c1ccccc1)S(=O)(=O)c1ccccc1[N+](=O)[O-] [CBK265954],58.8783
13,C[C@]12CN(Cc3cccs3)C[C@H]1NC(=O)c1ccccc1C2=O [CBK284702],107.917
14,COc1cccc(Oc2nccnc2-c2ccc(F)cc2)c1 [CBK106897],84.0219
15,O=C(O)c1ccc(NC(=O)c2ccc(S(=O)(=O)N3CCCCC3)cc2)cc1 [CBK267813],98.3749
16,CC(C)c1c(SCCN)[nH]c2ccccc12 [CBK017265C],36.308
17,Cc1ccc2c(c1)C(C)(c1ccccc1)CC(C)(C)N2C(=O)CSc1nncn1C (centres unmarked) [CBK022397],99.4993
18,COc1cncc(-c2cc(NCc3cc(OC)c(OC)c(OC)c3)ncn2)c1 [CBK091183],87.7046
19,CCCC1NCCn2cccc21 (centres unmarked) [CBK007074F],22.1807
20,CN1CCN(c2ccc(NC(=O)c3ccc([N+](=O)[O-])o3)cc2)CC1 [CBK269727],0.3106
21,CC(Oc1cccc2ccccc12)C(=O)N/N=C/c1ccc(Cl)cc1Cl (centres unmarked) [CBK262218],104.8

row,SMILES,% of control remaining
1,CC(C)=C(NC(=O)c1ccccc1)C(=O)Nc1cccc(C(=O)O)c1 [CBK058180],94.9589
2,CS(=O)(=O)c1ccc(-n2ncc(-c3ccc(C(F)(F)F)cc3)n2)cc1 [CBK112698],90.5218
3,CC(C)(C)C(=O)N1CCC(C(=O)NC(c2ccc3c(c2)OCO3)c2ccccn2)CC1 (centres unmarked) [CBK060074],101.755
4,Cn1nc(C2CCCC2)cc1[C@H]1CN2CC[C@H]1C[C@@H]2CNC(=O)N1CCOCC1 [CBK288740],88.4064
5,CCOc1ccc2nc(NS(=O)(=O)c3ccc4c5c(cccc35)C(=O)N4)sc2c1 [CBK262162],99.7189
6,O=C(c1cccnc1)C1CCN(C(=O)C2CCCC2)CC1 [CBK283508],99.5378
7,CN1CC=C(/C=C/c2c[nH]c3ccccc23)CC1 [CBK283602],17.6235
8,CCc1nn(CC(=O)N(CC)CC)c(=O)c2cc3oc(C)cc3n12 [CBK283583],56.9007
9,COC(=O)[C@@H](C)NC(=O)[C@@H]1CN(C(=O)c2cccc(F)c2)CCN1C(C)=O [CBK289620],109.745
10,O=C(O)CSCC(=O)Nc1ccc(Cl)cn1 [CBK057543],87.7671
11,CC1CC(Nc2ccccc2)c2ccccc2N1 (centres unmarked) [CBK057947],100.093
12,Cc1ccc2c(c1)nc1n2CCC1O (centres unmarked) [CBK113622],93.4222
13,CC(=O)Nc1cccc(NC(=O)c2cc(-c3ccccc3)nn2-c2ccccc2)c1 [CBK296997],93.3824
14,CCOC(=O)N1CCC(NS(=O)(=O)c2cc(Br)c(Cl)s2)CC1 [CBK045472],90.1536
15,COc1cc(CNCC2CCCO2)cc(Cl)c1OCC(N)=O (centres unmarked) [CBK270238C],94.0935
16,COC(=O)c1ccc(N2CCN(Cc3ccc(CO)o3)C(C)C2)cc1 (centres unmarked) [CBK305394],76.9901
17,COc1ccc2c(c1)C=C(/C=C/C1=CCN(C)CC1)CO2 [CBK283818],81.9497
18,C=C1S/C(=N\c2cc(Cl)cc(Cl)c2)NC1(CC)CC [CBK009484],83.4979
19,CCc1nc(CC(=O)NC(c2ccc(F)cc2)C2CCCO2)cs1 (centres unmarked) [CBK306336],100.802
20,CC(=C\C(=O)O)/C(=C\c1ccc(Br)cc1)C(=O)O [CBK278280N],104.399
